The other results are listed elsewhere or left out.

What all share (experiment): glycan array binding signal (z-score within array); higher = stronger binding
What all share (settings): glycan notation: IUPAC condensed, linker removed

The target of assay [1] is Gal(b1-4)Glc. In outline:
(§1)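 The Consortium for Functional Glycomics database supplied 3228 glycan arrays, of which those lacking an available protein sequence were dropped. The binding signal, a within-array Z-score, was averaged across arrays of the same protein sequence and across linkers. Negative scores can be read as non-binding.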

The target in assay [2] is Gal(b1-4)Glc6S. The method in brief: as §1
Assay [3] has as its target Gal(b1-4)GlcNAc. The method in brief: as §1
For assay [4], the target named is Gal(b1-4)GlcNAc(a1-6)Gal(b1-4)GlcNAc. In outline: as §1
The target in assay [5] is Gal(b1-4)GlcNAc(b1-2)Man. In outline:
as §1

Assay [6] concerns the target Gal(b1-4)GlcNAc(b1-2)Man(a1-3)Man(b1-4)GlcNAc(b1-4)GlcNAc. The method in brief: as §1
The target in assay [7] is Gal(b1-4)GlcNAc(b1-2)Man(a1-3)[Gal(b1-4)GlcNAc(b1-2)Man(a1-6)]Man(b1-4)GlcNAc(b1-4)GlcNAc. The method in brief: as §1
Assay [8] has as its target Gal(b1-4)GlcNAc(b1-2)Man(a1-3)[Gal(b1-4)GlcNAc(b1-2)Man(a1-6)]Man(b1-4)GlcNAc(b1-4)[Fuc(a1-6)]GlcNAc. In outline:
as §1

In assay [9] the target is Gal(b1-4)GlcNAc(b1-2)Man(a1-3)[Gal(b1-4)GlcNAc(b1-2)Man(a1-6)][Gal(b1-4)GlcNAc(b1-4)]Man(b1-4)GlcNAc(b1-4)[Fuc(a1-6)]GlcNAc. The method in brief: as §1
Assay [10] concerns the target Gal(b1-4)GlcNAc(b1-2)Man(a1-3)[Gal(b1-4)GlcNAc(b1-2)Man(a1-6)][GlcNAc(b1-4)]Man(b1-4)GlcNAc(b1-4)[Fuc(a1-6)]GlcNAc. In outline:
as §1

For assay [11], the target named is Gal(b1-4)GlcNAc(b1-2)Man(a1-3)[GlcNAc(b1-2)Man(a1-6)]Man(b1-4)GlcNAc(b1-4)GlcNAc. In outline:
as §1

For assay [12], the target named is Gal(b1-4)GlcNAc(b1-2)Man(a1-3)[GlcNAc(b1-4)][Gal(b1-4)GlcNAc(b1-2)Man(a1-6)]Man(b1-4)GlcNAc(b1-4)GlcNAc. The method in brief: as §1
The target in assay [13] is Gal(b1-4)GlcNAc(b1-2)Man(a1-3)[Man(a1-6)]Man(b1-4)GlcNAc(b1-4)GlcNAc. The method in brief: as §1
Assay [14] concerns the target Gal(b1-4)GlcNAc(b1-2)Man(a1-6)Man(b1-4)GlcNAc(b1-4)GlcNAc. In outline: as §1
The target in assay [15] is Gal(b1-4)GlcNAc(b1-2)Man(a1-6)[GlcNAc(b1-2)Man(a1-3)]Man(b1-4)GlcNAc(b1-4)GlcNAc. The method in brief:
as §1

Assay [16] deals with Gal(b1-4)GlcNAc(b1-2)Man(a1-6)[Man(a1-3)]Man(b1-4)GlcNAc(b1-4)GlcNAc. In outline: as §1
Assay [17] concerns the target Gal(b1-4)GlcNAc(b1-2)[Gal(b1-4)GlcNAc(b1-4)]Man(a1-3)[Gal(b1-4)GlcNAc(b1-2)Man(a1-6)]Man(b1-4)GlcNAc(b1-4)GlcNAc. In outline:
as §1

In assay [18] the target is Gal(b1-4)GlcNAc(b1-2)[Gal(b1-4)GlcNAc(b1-4)]Man(a1-3)[Gal(b1-4)GlcNAc(b1-2)[Gal(b1-4)GlcNAc(b1-6)]Man(a1-6)]Man(b1-4)GlcNAc(b1-4)GlcNAc. In outline:
as §1

The target in assay [19] is Gal(b1-4)GlcNAc(b1-2)[Gal(b1-4)GlcNAc(b1-4)]Man(a1-3)[GlcNAc(b1-4)][Gal(b1-4)GlcNAc(b1-2)Man(a1-6)]Man(b1-4)GlcNAc(b1-4)GlcNAc. The method in brief:
as §1

The target of assay [20] is Gal(b1-4)GlcNAc(b1-2)[Gal(b1-4)GlcNAc(b1-4)]Man(a1-3)[GlcNAc(b1-4)][Gal(b1-4)GlcNAc(b1-2)[Gal(b1-4)GlcNAc(b1-6)]Man(a1-6)]Man(b1-4)GlcNAc(b1-4)GlcNAc. The method in brief: as §1
Assay [21] concerns the target Gal(b1-4)GlcNAc(b1-2)[Gal(b1-4)GlcNAc(b1-6)]Man(a1-6)[Gal(b1-4)GlcNAc(b1-2)Man(a1-3)]Man(b1-4)GlcNAc(b1-4)GlcNAc. The method in brief:
as §1

Assay [22] addresses Gal(b1-4)GlcNAc(b1-2)[Gal(b1-4)GlcNAc(b1-6)]Man(a1-6)[Gal(b1-4)GlcNAc(b1-2)Man(a1-3)]Man(b1-4)GlcNAc(b1-4)[Fuc(a1-6)]GlcNAc. In outline:
as §1

B1: Epa10 (protein)
chain: MNEKIFRYLTLLFLFELARSLPVEDKLNIKKVFEKRAVDFTPFAHYPRPEGCSSPPNSVSVGLHMNLYNYPYLYVKPSTKGMFTNDTNSDADGETDGDSAGGIEGRAGQCWNPEYQDPNFPRFGYKQYGEFGASDNVNGDISWDHNEFTEGCKPVLAALPPGYNYPDEITFSNFTMVLSGYFKPKTSGVYKFELKADDFILFNFGAKNAFECCNREESIDNFGPYVAYAMWPNQADQELEVYLFEDSYYPLRLFYNNRDYHSKFKIGFYPPGQTTITFDFDGYLFMLDDTGNECRDSIRYRTVCDDKVVDDTTYSTRYSTSMVPGGGSDVITIYYIRMKCEEEDCLGQWDPINNVCYSPDDCADDGGYWNGQMCDQSCKLEGGIVNPDTGDCDKSCIESGGFLDENGNCDTTCRDDGGMLVEGQCDYQCKEAGGILVGDHCDTTCVDSGGKLNEDGTCDHSCRDQGGQLDENGECDTSCKDSGGMLIEGECDTSCKDEGGQLDDNNECINHCKDQGGIIDENGNCDTSCKDSGGKLDESGACDTSCRDDGGIIDENGNCNTTCRDDGGIIVGDHCDTSCRDAGGILIEDHCDTTCRDSGGKLNEDGTCDHSCRDQGGQLDENGKCDYSCKNGGGKLDEDGNCDMSCKENGGKLDENGDCDLSCKEDGGKLDGNGDCDYSCKEEGGVIDESGNCNTTCKDSGGQIIDGECNYGCIEVGGVVIDGECDTSCIDSGGILDGDGNCDRSCIESGGVLEDGACNTTCRDSGGQLNVDGTCDTSCRDDGGMLVEGQCDYQCKEAGGILEDGECVFPPTSSSTSETSSTTDQSSLQSDDSSMESSSTPMDSSTIESSSSEIITSESESESVPIASSSSEVMTSESESESIPILTSSSEIPIASSSSEIPVASSSSEIIIPESESESVPVASSSSEIPIASSSSEIPVASSSSEIPVASSSSEIIIPESESESIPIESTSSEAVSSRSESDSSYPTPTPTTTTITTWPNPIQPTTSNSSPIVSSSTETPGIAESSSRISDLESSRRTSILGDDRTRTRTTITSTITEDGQIITITTTVTGFVPEPTGETEGNGSDDENPENPIENNTDENEFLDPEFTDDIPDDPAGPEDNGNGPVNPEQGNDNDPVNLEDSGNNGAVNPEQAPVNDEDNGGNDPVNPEQDNNNGPANPGQDSTNGSGNSDQIDNNPPTPEENAGDGNSNGNDPADPSRRTSILGDERTRASPGGTSQPTGANGNVNGNSPGANVNGGGTGNSNNNNNNNNNNNNGNAPNGGDGSNGDANQGPSRRTSLLGDERTRAGQAAPTGGSSPDNGIAGDTSNNGGAIVSQQVDDGGAGSPRRTSILGDVRSRTTLNGEVLNFEGSGVRRAVAGNLALPLMMVGLVFNL
As to B1, the “glycan array binding signal (z-score)” value is -0.264 in assay [1]; -0.202 in assay [2]; -0.197 in assay [3]; 1.05 in assay [4]; -0.172 in assay [5]; -0.107 in [6]. The “glycan array binding signal (z-score)” value is -0.114 in assay [7]; -0.261 in [8]; -0.267 in [9]; -0.193 in [10]; -0.176 in [11]; -0.275 in [12]. For the same molecule, the “glycan array binding signal (z-score)” value is -0.199 in assay [13]; -0.193 in assay [14]; -0.21 in assay [15]; -0.272 in assay [16]; 0.119 in assay [17]; 0.12 in assay [18]. Moreover, the “glycan array binding signal (z-score)” value was -0.21 in [19], 0.053 in assay [20], -0.054 in assay [21] and 0.132 in assay [22].

For the origin of these results see the supplement of paper PMC8728848.
